Reference: PubChem BioAssay
Inconclusive means that the source gave no clear call. Such entries were picked first, then a sample of the others. Active and inactive are the calls of the source.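 How the source made its calls, unless noted: active means thallium flux slope more than 3 SD above or below the plate's solvent-only control mean, mostly below; inconclusive means the two repeat wells disagreed; inactive means no significant shift from solvent-only controls.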

Test system: not listed separately
Assay: FluoZin2 fluorescence counter-screen of MLSMR hits on KCC2-expressing cells (AID 1714;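 active means thallium entry rate above the same plate's blocked-transporter control wells by more than 3 SD; inconclusive means the two repeat wells disagree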;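 further: raw slope of fluorescence over initial fluorescence between 10 and 20 s after thallium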)
Details: HEK293-KCC2 + bumetanide/ouabain, at 10 µM, stronger effect = higher value
How it was run: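 material = KCC2-expressing HEK cells | reagent = thallium stimulus | compound dosing = 10 µM single dose | schedule = cells overnight at 37 °C, FluoZin2-AM dye loading 48 min | technique = kinetic FluoZin2 fluorescence, ex 480/em 540 nm | evaluation = normalized thallium flux slope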
With `Cc1c(-n2c(SCC(=O)O)nnc2-c2ccccc2Cl)c(=O)n(-c2ccccc2)n1C` the normalized thallium flux was inactive: 0.00539. With `O=C(NNC(=O)c1ccc(-c2ccccc2)cc1)c1ccccc1` the normalized thallium flux was inconclusive: 0.00799. For `CCn1c2ccc(C)cc2c2nnc(NN)nc21`, the normalized thallium flux was inconclusive: 0.00773. With `COc1ccc2nc(NC(=O)CSc3nnc(-c4ccoc4C)n3C)sc2c1` the normalized thallium flux was inconclusive: 0.00738. With `COCCNc1cc(C)c(C#N)c2nc3ccccc3n12` the normalized thallium flux was inconclusive: 0.00771. With `Fc1ccc(COc2cccc(-c3n[nH]c(=S)o3)c2)cc1` the normalized thallium flux was active: 0.101. With `Cc1ccc(N=Nc2ccc(O)c3ncccc23)cc1C` the normalized thallium flux was active: 0.00773. With `Clc1cccc(-c2nnc(SC/C=C/c3ccccc3)n2Cc2ccco2)c1` the normalized thallium flux was inconclusive: 0.00358. With `O=c1cc(-c2ccccc2Cl)oc2c([N+](=O)[O-])c(O)cc(O)c12` the normalized thallium flux was inconclusive: 0.00534. With `Cc1cccc(-n2c(-c3csc4ccccc34)n[nH]c2=S)c1` the normalized thallium flux was active: 0.0694. With `O=C(/C=C/c1ccccc1)Nc1scc(-c2ccccc2)c1C(=O)O` the normalized thallium flux was inconclusive: 0.00743. With `CCCCCn1nnc2c(=O)oc3ccccc3c21` the normalized thallium flux was inactive: 0.00446. In the case of `O=C1CSC(=Nc2ccccc2)N1`, the normalized thallium flux is reported as inconclusive: 0.00649. For `COc1ccc(-n2c(=S)[nH]c3sc4c(c3c2=O)CCc2ccccc2-4)cc1`, the normalized thallium flux was active: 0.0262. With `COC(=O)C1CCN(C(=O)COC(=O)CCc2nc3ccccc3c(=O)[nH]2)CC1` the normalized thallium flux was inactive: 0.00719.

Molecular target: Solute carrier family 12 member 5 (Homo sapiens) (UniProt Q9H2X9)
Chain of UniProt Q9H2X9 (Q9H2X9 whole entry, looked up): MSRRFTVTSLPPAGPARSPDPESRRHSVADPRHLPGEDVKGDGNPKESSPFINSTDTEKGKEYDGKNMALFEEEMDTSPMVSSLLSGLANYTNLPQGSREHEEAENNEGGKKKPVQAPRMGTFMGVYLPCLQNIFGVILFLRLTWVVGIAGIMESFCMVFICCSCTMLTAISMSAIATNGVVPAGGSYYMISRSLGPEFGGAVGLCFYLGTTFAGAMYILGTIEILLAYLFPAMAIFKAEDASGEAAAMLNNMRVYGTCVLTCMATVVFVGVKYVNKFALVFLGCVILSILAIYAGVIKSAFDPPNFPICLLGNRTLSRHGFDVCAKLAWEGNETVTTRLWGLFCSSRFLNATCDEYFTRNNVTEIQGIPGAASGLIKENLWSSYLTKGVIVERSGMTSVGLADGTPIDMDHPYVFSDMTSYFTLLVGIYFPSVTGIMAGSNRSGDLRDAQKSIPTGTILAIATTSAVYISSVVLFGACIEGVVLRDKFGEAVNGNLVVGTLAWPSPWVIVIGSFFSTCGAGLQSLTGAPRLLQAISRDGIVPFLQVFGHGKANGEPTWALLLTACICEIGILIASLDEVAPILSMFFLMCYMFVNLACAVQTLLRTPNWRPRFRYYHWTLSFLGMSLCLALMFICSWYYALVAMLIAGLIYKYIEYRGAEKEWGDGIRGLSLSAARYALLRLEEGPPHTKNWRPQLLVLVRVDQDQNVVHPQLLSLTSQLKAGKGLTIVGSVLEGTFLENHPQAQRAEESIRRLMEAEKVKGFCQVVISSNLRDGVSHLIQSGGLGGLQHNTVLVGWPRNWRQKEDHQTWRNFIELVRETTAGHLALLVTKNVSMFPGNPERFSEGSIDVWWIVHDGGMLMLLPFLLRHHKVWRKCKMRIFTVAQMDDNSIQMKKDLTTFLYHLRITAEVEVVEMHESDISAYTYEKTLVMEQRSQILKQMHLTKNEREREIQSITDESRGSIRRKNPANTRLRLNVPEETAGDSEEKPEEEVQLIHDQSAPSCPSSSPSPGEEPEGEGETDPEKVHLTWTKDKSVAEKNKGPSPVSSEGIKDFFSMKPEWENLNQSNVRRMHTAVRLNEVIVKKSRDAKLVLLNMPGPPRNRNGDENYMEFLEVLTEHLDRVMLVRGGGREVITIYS
Assay: retest of KCC2 transport modulation, ouabain-free – cell-based, HEK293 KCC2, thallium flux, FluoZin2, secondary assay 2, confirmation (AID 1715);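 further: raw slope with 0.1% DMSO as baseline and bumetanide as block control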
Details: HEK293-KCC2, thallium flux FluoZin2 fluorescence; at 10 µM; actives lie on both sides; F/F0 rise rate, 10–20 s post-thallium
For `Cc1ccc(NC(=S)N/N=C2/CCCCc3ccccc32)cc1`, the normalized thallium flux was inconclusive: 0.0378. For `C/C(=N/NC(=S)Nc1cccc(C)c1)c1cccc([N+](=O)[O-])c1`, the normalized thallium flux was inconclusive: 0.0415. With `Fc1ccc(NC(=S)NNc2ncc(C(F)(F)F)cc2Cl)c(F)c1` the normalized thallium flux was inconclusive: 0.037. With `COCCN1C(=O)C(O)=C(C(=O)c2ccco2)C1c1cccc(Oc2ccccc2)c1` (centres undefined) the normalized thallium flux was inconclusive: 0.0294. For `COC(=O)c1ccc(Cl)c(NC(=O)CN(c2ccccc2)S(=O)(=O)c2ccc(OC)cc2)c1`, the normalized thallium flux was inconclusive: 0.0306. For `N#C/C(=C(O)\C=C\c1ccccc1)c1nc2ccccc2[nH]1`, the normalized thallium flux was inconclusive: 0.0292. With `Cc1cc(C)c(NC(=S)NC(=O)c2c(Cl)c(C)nn2C)c([N+](=O)[O-])c1` the normalized thallium flux was inconclusive: 0.0394. In the case of `Cc1ccc(C(C#N)c2ccc3c(C(F)(F)F)cc(C(F)(F)F)nc3n2)cc1` (centres undefined), the normalized thallium flux is reported as inconclusive: 0.034. For `COc1ccc(SC[C@H](CC(C)C)N2CCN(CCc3ccccc3)CCC2=O)cc1`, the normalized thallium flux was inconclusive: 0.0256. For `CC(C)(C)c1ccc(C(=O)NCC(=O)OCN2C(=O)c3ccccc3C2=O)cc1`, the normalized thallium flux was inactive: 0.031. With `CCCn1nc([N+](=O)[O-])c(C(C#N)c2nc3ccccc3s2)c(Cl)c1=O` (centres undefined) the normalized thallium flux was inconclusive: 0.0262. With `COc1ccc(Cl)cc1C(=O)NNC(=S)NC(=O)/C=C/c1ccco1` the normalized thallium flux was inconclusive: 0.0406. With `CC(=O)c1cccc(NC(=S)NC(=O)c2ccc(C)cc2Cl)c1` the normalized thallium flux was inconclusive: 0.0381. In the case of `O=C(NCc1ccco1)c1nc2c(nnn2Cc2cccc(Cl)c2)c(=O)[nH]1`, the normalized thallium flux is reported as inconclusive: 0.0261. With `Cc1ccc(/C=C2/Sc3ccccc3N(CC(=O)NCCCOC(C)C)C2=O)cc1` the normalized thallium flux was inconclusive: 0.029. In the case of `CC(=O)NCCC(=O)N1CCCC(CNC(=O)c2ccc(-c3ccccc3)cc2)C1` (centres undefined), the normalized thallium flux is reported as inconclusive: 0.0258. In the case of `Cc1nc(CC(=O)Nc2nc(-c3ccccc3)cs2)cs1`, the normalized thallium flux is reported as inconclusive: 0.0299. For `C=CCN(c1ccc(OC)cc1)S(=O)(=O)c1ccc(Cl)c(C(=O)OCC(=O)NC2CC2)c1`, the normalized thallium flux was inconclusive: 0.0251. With `CCn1nnnc1SCC(=O)Nc1nc(-c2cccs2)cs1` the normalized thallium flux was inconclusive: 0.0256. For `Cc1cc(C)cc(NC(=S)N=Nc2c(O)n(C)c3ccc(S(=O)(=O)N4CCOCC4)cc23)c1`, the normalized thallium flux was inconclusive: 0.0377. With `CCCCn1c(-c2csc3ccccc23)n[nH]c1=S` the normalized thallium flux was inconclusive: 0.0382. For `CC1=CN2C(=N)/C(=C/c3ccc(Sc4ccc(C)cc4)o3)C(=O)N=C2S1`, the normalized thallium flux was inconclusive: 0.0395. With `Cc1cc(C)c(C#N)c(OCC(=O)c2ccccc2)n1` the normalized thallium flux was inconclusive: 0.0269. For `N#CC1=C(N)N=C(SCc2ccccc2)C(C(N)=O)C12CCCCC2` (centres undefined), the normalized thallium flux was inconclusive: 0.029.

Test system: not listed separately
Assay: native HEK Tl+ uptake effects, second counter-screen – HEK cells, counterscreen 2, counter-screen for KCC2 modulator project, confirmation (AID 1718;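 active means thallium flux slope above the same plate's solvent-control mean plus 3 SD in both duplicate wells; inconclusive means duplicate wells that disagreed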;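 further: run without ouabain in cells lacking the KCC2 cotransporter; slope of fluorescence scaled to its starting value between 10 and 20 s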)
Details: HEK293 parental, thallium flux FluoZin-2 fluorescence slope; at 10 µM
How it was run: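 System: Parental HEK cells | Also added: Thallium sulfate stimulus buffer | Compound dosing: Single 10 µM final compound dose, 0.1% DMSO | Schedule: Overnight cell culture at 37 °C, 48 min dye loading, compound before thallium | Signal: FluoZin-2 fluorescence kinetics | Repeats: Replicate wells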
For `Cc1c(-n2c(SCC(=O)O)nnc2-c2ccccc2Cl)c(=O)n(-c2ccccc2)n1C`, the thallium flux slope was inconclusive: 0.0109. With `O=C(NNC(=O)c1ccc(-c2ccccc2)cc1)c1ccccc1` the thallium flux slope was inconclusive: 0.0105. With `CCn1c2ccc(C)cc2c2nnc(NN)nc21` the thallium flux slope was inactive: 0.0108. With `COc1ccc2nc(NC(=O)CSc3nnc(-c4ccoc4C)n3C)sc2c1` the thallium flux slope was inactive: 0.0113. In the case of `COCCNc1cc(C)c(C#N)c2nc3ccccc3n12`, the thallium flux slope is reported as inconclusive: 0.011. In the case of `Fc1ccc(COc2cccc(-c3n[nH]c(=S)o3)c2)cc1`, the thallium flux slope is reported as active: 0.0338. For `Cc1ccc(N=Nc2ccc(O)c3ncccc23)cc1C`, the thallium flux slope was inconclusive: 0.0112. With `Clc1cccc(-c2nnc(SC/C=C/c3ccccc3)n2Cc2ccco2)c1` the thallium flux slope was inconclusive: 0.00951. For `O=c1cc(-c2ccccc2Cl)oc2c([N+](=O)[O-])c(O)cc(O)c12`, the thallium flux slope was inconclusive: 0.0093. With `Cc1cccc(-n2c(-c3csc4ccccc34)n[nH]c2=S)c1` the thallium flux slope was inconclusive: 0.0117. For `O=C(/C=C/c1ccccc1)Nc1scc(-c2ccccc2)c1C(=O)O`, the thallium flux slope was inactive: 0.0108. With `CCCCCn1nnc2c(=O)oc3ccccc3c21` the thallium flux slope was inconclusive: 0.00803. In the case of `O=C1CSC(=Nc2ccccc2)N1`, the thallium flux slope is reported as inconclusive: 0.0113. For `COc1ccc(-n2c(=S)[nH]c3sc4c(c3c2=O)CCc2ccccc2-4)cc1`, the thallium flux slope was inconclusive: 0.0117. In the case of `COC(=O)C1CCN(C(=O)COC(=O)CCc2nc3ccccc3c(=O)[nH]2)CC1`, the thallium flux slope is reported as inconclusive: 0.0112.
